In the supplement of paper PMC7726561:
The full ranking holds about 1,100 sequences; the median of “thermal melting temperature (Tm) of peptide-HLA complex” is about 58, and the lowest 2% start at about 42. The list shows a part of the results.

The sequences below were run against HLA-A*02:01 (assay: thermal melting temperature (Tm) of peptide-HLA complex; higher = more thermostable pHLA complex). Conditions: C1R-A*02:01.
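Further: cell lysates heated 10 min at 37–73 °C, remaining pHLA pulled down with pan-class I antibody, peptides quantified by DIA-MS versus 37 °C, Tm where half the complex is lost.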

Sequence	thermal melting temperature
SLLSGRISTL	49.1 °C
YISEENFRV	57.8 °C
VLLEEGEAQRL	51.8 °C
KLYNPENIYL	58.5 °C
ILLPRPPQV	64.3 °C
KIIDEDGLLNL	44 °C
FLRGPALELV	60 °C
ALDRDNFEL	47.8 °C
TQLGPPYHIL	51.3 °C
GVAESIHLWEV	60.5 °C
YLGPHIASV	61.9 °C
AMIELVERL	54 °C
FLTDSNNIKEV	60.6 °C
NIIPRFVQV	56.6 °C
GLTEALHFV	64.6 °C
TLWPEVQKL	55.3 °C
ALSEKLARL	58.7 °C
ALLGDLTKA	57.5 °C

Sequence	thermal melting temperature
TVLTQEAIITV	49.9 °C
ALLDRIVSV	64.2 °C
LLYQEGAKMAV	58.3 °C
VLSEENFKV	58.4 °C
ILLDQTVRV	61.5 °C
SLDAKEIYL	50.5 °C
LLQDKQFEL	58.9 °C
RIIDVVYNA	57.7 °C
RLFDDVPQV	64.7 °C
SLVDTPKQIQL	47.9 °C
SLLNPPETLNL	54.9 °C
VMQDPEFLQSV	59.6 °C
SLEQRLNEV	57.8 °C
ILDQKVALL	41.7 °C
KQYGNEVFL	55.7 °C
ILTEAIKAA	59.3 °C
RMISEELVAA	53.2 °C
FLPQGFPDSV	45.8 °C
